Measured values from the supplement of paper PMC3334620.
Over roughly 33,000 sequences, “E-score (-0.5 to 0.5)” has its median near -0.013; the highest 2% begin near 0.3. This is one part of the list.

Biological target: T1, Msn1 (UniProt P22148)
T1 sequence: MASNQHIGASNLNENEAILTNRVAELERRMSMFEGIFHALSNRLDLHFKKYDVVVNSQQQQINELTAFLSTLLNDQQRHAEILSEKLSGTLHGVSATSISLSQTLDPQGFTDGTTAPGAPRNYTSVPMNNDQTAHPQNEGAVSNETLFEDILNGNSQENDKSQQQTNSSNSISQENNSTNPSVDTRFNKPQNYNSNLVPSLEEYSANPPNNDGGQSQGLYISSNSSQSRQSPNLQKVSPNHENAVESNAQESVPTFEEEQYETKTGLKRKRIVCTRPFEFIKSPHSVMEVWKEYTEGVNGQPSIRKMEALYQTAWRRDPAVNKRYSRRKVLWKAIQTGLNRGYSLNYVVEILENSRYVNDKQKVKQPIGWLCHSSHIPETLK
Assay: PBM E-score (8-mer binding enrichment) (E-score (-0.5 to 0.5)); higher = stronger / more preferred TF binding; most listed sequences are background and not binding sites
Conditions: protein concentration: 200 nM; construct: GST-full length
How it was run: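 PURExpress in vitro transcription/translation supplied GST-tagged yeast transcription factors, either full-length or DNA-binding domain. Applied at about 100-200 nM to universal all-10-mer Agilent arrays double-stranded by primer extension, the bound protein was detected with fluorescent anti-GST. E-scores, modified Wilcoxon-Mann-Whitney statistics, were given by the Universal PBM Analysis Suite to ungapped eight-base words pooled with their reverse complements after masliner normalisation.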

Row | Sequence | PBM E-score
1 | GAACATTA | 0.195
2 | ATTGCCTG | 0.00362
3 | CACGGATG | -0.00476
4 | AACTGATG | -0.0617
5 | CCATCACA | -0.184
6 | GTACGAAA | 0.249
7 | GAACTATA | 0.232
8 | ACTCTAGG | -0.144
9 | CGGACAGC | 0.182
10 | CCGAGAGA | -0.0155
11 | AACTCATA | 0.117
12 | AGTTATAT | 0.105
13 | ACGCGCGA | -0.0535
14 | AAAGAGCA | 0.0285
15 | GTTACCAA | 0.14
16 | ACAGAGTC | -0.0137
17 | GAGTTTCC | -0.0421
18 | GTTGCTCA | -0.14
19 | CGGGACAG | 0.197
20 | AGCGCCAA | -0.244
21 | ACTCACCT | -0.373
22 | CGGTAAAC | -0.0747
23 | AATGGCGC | -0.106
24 | AAGGTGGA | -0.16
25 | AGACATCG | 0.226

Row | Sequence | PBM E-score
26 | ATCCTGAA | 0.0111
27 | ATGCCAAA | -0.00556
28 | CGATTACA | 0.0854
29 | GTCCCCGA | 0.144
30 | CGACTCAA | 0.0429
31 | CGACGTAA | 0.167
32 | ACCGGTAT | -0.11
33 | CACAGCAA | 0.252
34 | ACTGCTAT | -0.146
35 | TAGACTCA | -0.147
36 | ACTCGGTC | 0.0379
37 | GCGCAAGC | -0.271
38 | ACACCAGC | -0.204
39 | ACGCTTAA | -0.0228
40 | ATTAGTTG | 0.174
41 | GCCTACTA | 0.0105
42 | CTAATACC | -0.0913
43 | ACTAGTCC | 0.183
44 | AACTCGCG | 0.137
45 | GGGTAAGA | -0.0207
46 | TACCATCA | -0.243
47 | ATAATAAA | 0.187
48 | AGGGGACC | -0.207
49 | CGCTTTGA | -0.00333
50 | ATATTTAA | 0.258

Row | Sequence | PBM E-score
51 | GACATTGC | 0.434
52 | ATGGTCCC | -0.169
53 | CGGTACTC | -0.0617
54 | AAGAGCGG | -0.132
55 | AGAGCAAT | -0.169
56 | TCACCCGA | 0.0453
57 | CACCTTTC | 0.0325
58 | AAAAAGAC | 0.219
59 | AGCTGATA | -0.135
60 | TCAGACGA | 0.0574
61 | AAGAGGAC | 0.0335
62 | CACATCAC | -0.107
63 | CTAAGTAC | 0.138
64 | GCATAAAC | 0.0323
65 | ATCCTGTC | 0.11
66 | AACATAGT | -0.0153
67 | ATAGCTCA | -0.195
68 | CACTAAGA | 0.169
69 | CGGGCCAA | -0.0575
70 | GCAGCGCC | -0.103
71 | ACGTAGCT | -0.0308
72 | CGGTGTCC | 0.304
73 | TGCCCTAA | -0.0784
74 | AAGATAAC | 0.0371
75 | ACTTTTTA | 0.205

Row | Sequence | PBM E-score
76 | GGCGTGTA | 0.0924
77 | ATCGTAAA | 0.0575
78 | GCAACGCA | -0.271
79 | CTGGGTGA | -0.0355
80 | ATGCGTTA | -0.0377
81 | AATAGCAA | 0.151
82 | CGTAGTAG | -0.203
83 | ATTTCGAG | 0.234
84 | ATACGGAG | -0.00987
85 | GCTTCTTA | -0.0464
86 | GAATCGCA | -0.169
87 | CGTAGCGC | -0.274
88 | ACCGATAC | 0.0522
89 | ACAAGACA | 0.34
90 | AGGGGCAG | -0.13
91 | ATTGGTAG | 0.0226
92 | ATCCCGAC | 0.154
93 | AAAAGCAA | 0.0931
94 | GGTAAGTA | 0.13
95 | GCCGTAGA | 0.193
96 | TGAAGCAA | -0.00883
97 | CCTGACTA | 0.147
98 | ATAATCTC | 0.019
99 | AGAATTAG | -0.135
100 | ATGCCTAC | -0.129

Row | Sequence | PBM E-score
101 | GTTTGTCA | 0.299
102 | ATCGTTAG | 0.0232
103 | AATCGAGA | 0.0547
104 | CATTTACG | 0.0753
105 | CCGCGCTC | -0.0142
106 | AACCTGCT | -0.0314
107 | GGTCTTTA | 0.00251
108 | ATGCGAAC | -0.0313
109 | AGAGTCGG | -0.128
110 | TCTACGCA | -0.0155
111 | GAACTCGA | -0.104
112 | AGAAAAGA | 0.162
113 | CACCAATG | -0.00217
114 | AACTTGCC | 0.0239
115 | AACCCGTG | -0.246
116 | CGAAGTTC | 0.0811
117 | GCAACCGA | 0.0638
118 | GGATGTGA | 0.0236
119 | TCTAAGCA | 0.0219
120 | AATAGTGG | 0.0374
121 | AAAAATCT | 0.202
122 | GGAATTCC | 0.0467
123 | AACGAGGA | 0.0106
124 | GAACCCGC | -0.25
125 | CGGTCGGC | -0.336

Row | Sequence | PBM E-score
126 | AGAGTTAA | 0.0364
127 | CAAAATCC | 0.153
128 | ATAACCAA | 0.115
129 | AAGTCACG | 0.122
130 | ATAATCCC | -0.0565
131 | AGCCACAA | 0.0571
132 | AATGCACG | -0.131
133 | AGTTTAGC | 0.0785
134 | CAGTTTAC | -0.0477
135 | GACCTCGC | -0.0387
136 | CCGATGGA | -0.043
137 | GAAGACAC | 0.181
138 | CGTTTAAA | 0.215
139 | GTCATAGA | 0.141
140 | CCGTGAAG | -0.198
141 | ATTGGTGG | -0.115
142 | ACGTACAT | 0.307
143 | CTTAATCC | -0.0841
144 | CATCGGTA | 0.115
145 | GGGGTGAA | -0.0529
146 | GCAGTCCC | -0.296
147 | GTTCTTAA | 0.0973
148 | CTTTCTGC | 0.0309
149 | GGTGCACC | -0.242
150 | CAGAATCA | 0.00097

Row | Sequence | PBM E-score
151 | AACTATAG | -0.0296
152 | CTCGACCA | -0.161
153 | GGCTACGA | -0.0567
154 | ACGCAGTC | -0.324
155 | AGGACCCA | -0.221
156 | AATTGGAC | 0.342
157 | CCATGCGC | -0.0469
158 | AATGTACA | 0.294
159 | CCTAGTAA | -0.176
160 | CATCATCC | -0.0785
161 | CCGTCTAC | 0.0392
162 | CTTTCAAA | 0.155
163 | ATTGCTCG | -0.0671
164 | CCGAGGCA | -0.00905
165 | CACGCCTC | -0.132
166 | AAACGGAT | 0.178
167 | GCCGAATA | 0.106
168 | GCACTTAA | 0.135
169 | ACCTGACT | 0.044
170 | AAAAGCGG | 0.0923
171 | CCGCGAAG | -0.11
172 | AATTGTAG | 0.167
